Experimental data: PubChem BioAssay AID1948 (National Center for Advancing Translational Sciences (NCATS), 2009)
Screen size: about 110,000 compounds; about 20 (0.02%) were called active. The inconclusive results got no clear call from the source; some entries with a clear call stand among them for comparison. Calls come from the whole dose curve; as a rule, active = well fitted activation curve with a large enough effect; inconclusive = small, poorly fitted or top-dose-only effect; inactive = no such curve, though single readings can be large or run the other way. Potencies of inconclusive entries are left out as doubtful fits.

Test: qHTS Assay for Compounds that Induce Erasure of Genomic Imprints;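 for activity change, positive = activation: 0% = negative control wells on the plate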
Settings: mouse ES Peg3-LacZ reporter, beta-gal luminescence, 40 h; activity change, positive = activation: at 10.9 µM (top of the series) unless noted
Outline: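 Imprint erasure is scored as LacZ activity from the silenced maternal Peg3 allele in feeder-free female ES cells cultured 40 h with LIF. Luminescence is normalized to in-plate negative controls and fitted to the Hill equation.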
Potency is the fitted concentration of half-maximal effect; tags give direction and shape of the fitted curve.

SMILES | activity change, positive = activation | Potency
Oc1c(C(c2ccc(Cl)cc2)N2CCC3(CC2)OCCO3)sc2nc(-c3ccco3)nn12 (centres undefined) | inconclusive: 44.8% [activator] | 
CCOc1ccccc1NC(=O)CSc1nc2cc(OC)c(OC)cc2c2nc(-c3ccccc3)nn12 | inconclusive: 55.7% [activator] | 
COc1ccc(-c2cc(C(F)(F)F)nc(SCCC(=O)Nc3cc(C)ccc3O)n2)cc1 | inactive: -2.6% | 
COc1ccccc1OCCSc1nc2ccccc2n1CC(=O)N1CCOCC1 | inactive: -10.8% | 
Cc1n[nH]c(C)c1S(=O)(=O)N(CC(=O)Nc1ccc(C(F)(F)F)cc1)c1ccc(C(C)C)cc1 | inconclusive: 69.5% [activator] | 
N[C@@H](CSCc1ccc(I)cc1)C(=O)O |  | inconclusive [activator, full curve, poor fit]
CCN(CC)c1ccc(NC(=O)CN2CCN(c3ccccc3OC)CC2)cc1 | inconclusive: 30.7% [activator] | 
CS(=O)(=O)N1CCN(c2ccccc2NC(=O)Cc2ccc(Cl)cc2)CC1 |  | inconclusive [activator, single point]
COC(=O)c1cc(CSc2nc3ccc(C)cc3[nH]2)oc1C | inactive: -20.8% [at 60.7 µM] | 
COc1ccc(CN(C(=O)c2ccco2)c2ccc(Br)cc2)cc1OC | inactive: -12.5% [at 60.7 µM] | 
Cc1ccccc1C(=O)OCc1cc(=O)n2nc(C3CCCCC3)sc2n1 | inactive: -9.19% | 
COc1ccc(-n2c(/C=C(\C)O)nc(=O)c3c(C)cc(C)nc32)cc1 |  | inconclusive [activator, single point]
Cc1nn(C(=O)COc2ccccc2Br)c(C)c1Sc1ccccc1 | inactive: -11.7% | 
O=C(Cn1cnc2onc(-c3ccc(F)cc3)c2c1=O)Nc1ccc(F)c(Cl)c1 | inactive: 14.3% | 
CCCNC(=O)NC(=O)CSc1nc2ccccc2n1CC(C)C | inactive: -12% [at 60.7 µM] | 
Cc1ccccc1C(=O)Nc1ccc(OCc2cc(=O)n3ccccc3n2)cc1 | inconclusive: 31.4% [activator] | 
CC(=O)c1ccc(Nc2nc3c(S(=O)(=O)c4ccccc4)nnn3c3ccc(Cl)cc23)cc1 | inactive: 14.5% | 
CCC(=O)N1CCc2cc(S(=O)(=O)NCCC(=O)Nc3cc(C)ccc3OC)ccc21 | inactive: 16.1% | 
COC(=O)[C@@]1(Cc2ccccc2)[C@H]2c3cc(C(=O)N4CCCC4)n(Cc4ccc(C(F)(F)F)nc4)c3C[C@H]2CN1C(=O)c1ccccc1 | inactive: -17.1% [at 60.7 µM] | 
Cc1ccc(/C(O)=C2/C(=O)C(=O)N(CCCn3ccnc3)C2c2cccnc2)cc1 (centres undefined) |  | inconclusive [activator, full curve]
Cc1noc(C)c1-c1ccc2ncnc(N(C)C)c2c1 |  | inconclusive [activator, partial curve]
CCCSc1nsc(SCCC)c1C(N)=O |  | inconclusive [activator, single point]
CCSc1nnc(-c2ccc(S(=O)(=O)N3CCOCC3)cc2)n1CC1CCCO1 (centres undefined) | inactive: -9.79% [at 60.7 µM] | 
O=C(Nc1ccc(N2CCN(c3ccc(F)cc3)CC2)c(C(=O)O)c1)c1ccccc1F | inconclusive: 33.2% [activator] | 
CCOc1ccc(C2c3[nH]c4ccccc4c3CCN2C(=O)Cc2cccc(OCC)c2OCC)cc1 (centres undefined) | inactive: -8.27% | 

SMILES | activity change, positive = activation | Potency
Cc1cc(C)cc(-n2ccnc2SCC(=O)Nc2nc3ccccc3s2)c1 | inconclusive: 36.2% [activator] | 
CCOCC(=O)Nc1sc2c(c1C(=O)OCC)CCCC2 |  | inconclusive [activator, single point]
CCCc1cc(C(=O)Nc2sc(C(C)=O)c(C)c2C(=O)OCC)no1 | inactive: -4.51% [at 60.7 µM] | 
CCCCCCC(=O)N(O)C1CC(=O)N(c2ccc(Br)cc2)C1=O (centres undefined) |  | inconclusive [activator, partial curve]
CC(C)Cc1cc(C(=O)Nc2sc3c(c2C#N)CCCC3)no1 | inactive: -5.92% [at 60.7 µM] | 
Cc1c(C)n(C)c2ccc(C(=O)NCc3cccs3)cc12 |  | inconclusive [activator, partial curve]
Cc1ccc(NC(=O)CN2CCCN(Cc3ccccc3Cl)S2(=O)=O)c(C)c1 | inconclusive: 31.5% [activator] | 
O=c1c(-c2ccc(F)c(F)c2)nc2cncnc2n1C1CC1 |  | inconclusive [activator, single point]
O=C(CSc1ncc2c(n1)-c1ccc(Cl)cc1N(Cc1ccccc1)S2(=O)=O)Nc1ccccc1C(F)(F)F | inconclusive: 43.7% [activator] | 
COc1cccc(Nc2ncc3nc(CCc4ccccc4)c(=O)n(Cc4cccs4)c3n2)c1 |  | inconclusive [activator, single point]
CN(Cc1ccccc1)c1nc2c(c(=O)[nH]c(=O)n2C)n1Cc1ccccc1Cl | inactive: -7.93% [at 60.7 µM] | 
O=C(NCCn1ccc2ccccc21)c1ccc(S(=O)(=O)N2CCOCC2)cc1 |  | inconclusive [activator, single point]
C=C(C)Cn1c(-c2ccccc2)nc2ccccc21 | inactive: -13% [at 60.7 µM] | 
COC(=O)c1ccccc1NC(=O)Cn1c(=O)cc(C)c2c(C)nn(-c3cccc(Cl)c3C)c21 | inconclusive: 37.6% [activator] | 
COc1cccc2c1CCC1=CC(=O)CC[C@@]12C |  | inconclusive [activator, single point]
CCSc1nc2c([nH]c3ccccc32)c(=O)n1-c1ccc(OC)cc1 | inconclusive: 39.7% [activator] | 
CCCC[C@@H]1C[C@H]1C(NC(=O)c1ccccc1)c1ccc(-c2ccccc2)cc1 (some centres undefined) |  | inconclusive [activator, single point]
CCCCC(CC)CN1CN(CC(CC)CCCC)CC(C)(N)C1 (centres undefined) |  | inconclusive [activator, single point]
CC(CO)(CO)Nc1ncnc2ccccc12 |  | inconclusive [activator, single point]
CC(C)NCC[C@@H](O)c1cc2ccccc2o1 |  | inconclusive [activator, partial curve]
Cc1c(NC(=O)CCc2ccc(S(=O)(=O)N3CCOCC3)cc2)c(=O)n(-c2ccccc2)n1C |  | inconclusive [activator, single point]
CCOC(=O)CSC(CC)C(=O)Nc1nnc(C(C)C)s1 (centres undefined) | inactive: -7.22% [at 60.7 µM] | 
COc1cccc(-n2c(=O)c3c(C)c(C(=O)N(C)C)sc3n(CC(=O)Nc3ccc(C)cc3Cl)c2=O)c1 | inconclusive: 35.2% [activator] | 
N#CCC(=O)NCC1(c2ccccc2)CCCC1 |  | inconclusive [activator, single point]
Cc1ccc(NC(=O)CN2C(=O)COc3ccc(S(=O)(=O)N4CCCCCC4)cc32)cc1C | inconclusive: 46.2% [activator] | 

SMILES | activity change, positive = activation | Potency
CC(=O)N1CCN(c2ccc(NCc3cccs3)cc2)CC1 |  | inconclusive [activator, single point]
CCCn1nnc(NC(=O)Cc2ccc(Cl)cc2)n1 |  | inconclusive [activator, single point]
CN(C)C(=O)c1ccc(-c2nc(Nc3ccncc3)c3ccccc3n2)cc1 | inactive: -7.11% [at 60.7 µM] | 
Cc1cc(C)c(Cn2c3ccccc3c3cnn(CC(=O)NCCc4ccccc4)c(=O)c32)c(C)c1 | inactive: -10.7% | 
COC(=O)c1cc2oc3ccccc3c2n1Cc1nc(-c2cccc(Cl)c2)oc1C | inconclusive: 36.5% [activator] | 
CCNc1ncc2nc(-c3cc(F)cc(F)c3)c(=O)n(Cc3ccc(F)cc3)c2n1 |  | inconclusive [activator, single point]
CCOC(=O)c1cccc(NC(=O)CCc2c(C)nc3cc(-c4ccc(Cl)cc4)nn3c2C)c1 | inconclusive: 42% [activator] | 
Cc1ccccc1-c1cc(N(C)C)ncn1 |  | inconclusive [activator, partial curve]
CCc1ccccc1NC(=O)CSC1=C(C#N)C(c2ccc3c(c2)OCO3)C2=C(CCCC2=O)N1 (centres undefined) | inactive: -10.8% [at 60.7 µM] | 
COc1cc(-c2noc(CSc3nc(-c4ccccc4)cc(=O)[nH]3)n2)cc(OC)c1OC | inactive: 3.97% | 
CC1=C(C(=O)Nc2cccnc2)C(c2cccc(O)c2)n2nc(SCc3ccccc3)nc2N1 (centres undefined) | inactive: -7.25% | 
COc1ccccc1NC(=O)CCn1cnc2ccccc2c1=O | inconclusive: 30.1% [activator] | 
O=C(OCc1ccco1)c1ccc2c(c1)N(Cc1ccc([N+](=O)[O-])cc1)C(=O)c1ccccc1S2 | inactive: -8.45% | 
Brc1ccc(-c2nc(N3CCN(c4ccccc4)CC3)c3ccccc3n2)cc1 | inconclusive: 42.3% [activator] | 
COC(=O)c1cc(C)nc2c1c(=O)nc(SCc1cccc(C(F)(F)F)c1)n2C1CC1 | inconclusive: 46.6% [activator] | 
COc1ccc(CNC(=O)C2CCN(c3nnc(C)c4c(C)n(-c5ccc(C)cc5)nc34)CC2)cc1 | inactive: -7.57% | 
Cc1cccc(CC(=O)Nc2cccc(-c3cn4cccnc4n3)c2)c1 | inactive: 27.8% | 
COc1ccc(N2CCN(c3nc(NCCO)nc(N4CCOCC4)n3)CC2)cc1 |  | inconclusive [activator, single point]
CC(C)COc1ccc(-c2nnn(CC(=O)N3CCCC3)n2)cc1 |  | inconclusive [activator, single point]
CCN(CCCNC(=O)CN1N=C(c2ccc(C)cc2)CCC1=O)c1ccccc1 | inconclusive: 67.5% [activator] | 
Cc1ccc(NC(=O)CSC(N)=O)cc1Cl |  | inconclusive [activator, single point]
O=C(NC1CC(=O)N(c2ccc(F)cc2)C1)C(c1ccccc1)c1ccccc1 (centres undefined) | inactive: 13.4% | 
COC(=O)c1ccc(NC(=O)c2cc3cc4ccc(OC)c(Cl)c4nc3s2)cc1 | inactive: -11.9% | 
Cc1ccc(NC(=O)c2sc3nc[nH]c(=O)c3c2C)cc1C | inconclusive: 38.4% [activator] | 
